The supplement of paper PMC9135407
Values joined by “and” are separate entries in the source; they are usually repeats but may differ in a detail not shown here. Identical values can stand only once. Counter-ions that a name gives are not always drawn. Out of some 5,800 compounds screened, about 620 (11%) showed activity.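 The calls were made as follows: active = score above a cut-off or among the top three wells of a plate; in these data no inactive exceeds 0.85.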 The entries are a selection whose mix differs from that of the whole data set.

Test system: primary human hepatic stellate cells (donor 1)
Test: scaled lipid accumulation score (0 = DMSO-like, 1 = nortriptyline-like); higher = stronger HSC inactivation (lipid re-accumulation), active = hit call of the paper
Settings: 48 h
Protocol: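 Primary lipid accumulation screen in primary human hepatic stellate cell myofibroblasts (donor 1, passage 8) in 384-well plates. 100 nL of library compound was pin-transferred into 30 µL medium in duplicate, and cells were treated for 48 h. The 'Scaled' score combines distance from plate baseline, toxicity and reproducibility penalties, and is normalised to nortriptyline (positive) and DMSO (negative) controls on each plate. A hit is defined as scaled >0.85 or among the top 3 wells per plate.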

[1] = library stock concentration: 3.33 mM
[2] = library stock concentration: 10 mM

Cn1cnc2cc3c(Nc4cccc(Br)c4)ncnc3cc21
scaled lipid accumulation score [1]: inactive: 0.044

C#C[C@]1(O)CC[C@H]2[C@@H]3CCC4=Cc5oncc5CC4(C)[C@H]3CCC21C (stereo partly specified) [Danazol]
scaled lipid accumulation score [2]: active: 0.915

CN(C)[C@@H]1C(O)=C(C(N)=O)C(=O)[C@@]2(O)C(O)=C3C(=O)c4c(O)cccc4[C@@](C)(O)[C@H]3[C@H](O)[C@@H]12 [Oxytetracycline]
scaled lipid accumulation score (library stock concentration: 4 mM): inactive: 0.025 | scaled lipid accumulation score [2]: inactive: ≤ 0

CN(C)[C@@H]1C(O)=C(C(N)=O)C(=O)[C@@]2(O)C(O)=C3C(=O)c4c(O)cccc4[C@@](C)(O)[C@H]3[C@H](O)[C@@H]12 [Oxytetracycline dihydrate]
scaled lipid accumulation score: inactive: 0.056

CN(C)[C@@H]1C(O)=C(C(N)=O)C(=O)[C@@]2(O)C(O)=C3C(=O)c4c(O)cccc4[C@@](C)(O)[C@H]3[C@H](O)[C@@H]12 [Oxytetracycline hydrochloride]
scaled lipid accumulation score [2]: inactive: ≤ 0

COc1cc(OC)c(/C=C/S(=O)(=O)Cc2ccc(OC)c(NCC(=O)O)c2)c(OC)c1
scaled lipid accumulation score (library stock concentration: 80 uM): inactive: ≤ -0.016 | scaled lipid accumulation score (library stock concentration: 400 uM): inactive: ≤ -0.016 | scaled lipid accumulation score (library stock concentration: 2 mM): inactive: 0.096 | scaled lipid accumulation score [1]: inactive: 0.068 | scaled lipid accumulation score [2]: inactive: 0.138 and inactive: 0.063

OC(CN1CCN(c2cccc(Cl)c2)CC1)C(c1ccccc1)c1ccccc1 (stereo unspecified)
scaled lipid accumulation score [1]: inactive: ≤ 0 | scaled lipid accumulation score [2]: inactive: ≤ 0 and inactive: 0.084

O=c1[nH]c(=O)n([C@H]2C[C@H](O)[C@@H](CO)O2)cc1Br [5-Bromo-2'-deoxyuridine]
scaled lipid accumulation score [2]: inactive: 0.299

CN(C)CCOc1ccc(/C(=C(/CCCl)c2ccccc2)c2ccccc2)cc1.O=C(O)CC(O)(CC(=O)O)C(=O)O
scaled lipid accumulation score [2]: active: 0.946

CCCCC1(COC(=O)CCC(=O)O)C(=O)N(c2ccccc2)N(c2ccccc2)C1=O [Suxibuzone]
scaled lipid accumulation score: inactive: ≤ 0 | scaled lipid accumulation score [2]: inactive: ≤ 0

COc1cc(NC(C)CCCN)c2ncccc2c1 (stereo unspecified) [Primaquine diphosphate]
scaled lipid accumulation score: inactive: ≤ 0 | scaled lipid accumulation score (library stock concentration: 4.4 mM): inactive: 0.035 | scaled lipid accumulation score [2]: inactive: 0.025

COc1cc(NC(C)CCCN)c2ncccc2c1 (stereo unspecified) [Primaquine Diphosphate]
scaled lipid accumulation score [1]: inactive: 0.027 | scaled lipid accumulation score [2]: inactive: 0.152 and inactive: 0.501

COc1cc(NC(C)CCCN)c2ncccc2c1 (stereo unspecified) [Primaquine phosphate]
scaled lipid accumulation score (library stock concentration: 7.7 mM): inactive: ≤ 0

CCCCNc1c(C(=O)OCC)c(C)nc2c1cnn2CC [Tracazolate]
scaled lipid accumulation score [2]: inactive: 0.143

CCCCNc1c(C(=O)OCC)c(C)nc2c1cnn2CC [Tracazolate hydrochloride]
scaled lipid accumulation score: inactive: ≤ 0 | scaled lipid accumulation score [2]: inactive: ≤ -0.006
